# Some of the results follow.
# Test system: T1, C. trachomatis L2/434/Bu expressing GFP (CTL2-GFP)
# T1 construct: L2/434/Bu GFP intracellular growth in HeLa cells
# Set-up: species or system HeLa; C. trachomatis total inclusion area by high-content imaging, normalised to DMSO
# Settings: total inclusion area; 28.5 h, 10 µM; inhibitor
# How it was run: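 Host cell viability was gauged from Hoechst-stained nuclei counts, while chlamydial growth was taken from total inclusion area and inclusion number per well. Cells were fixed and imaged by high-content microscopy once bulk GFP and resorufin fluorescence had been measured.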
row,Compound,% of control remaining
1,CC(C)c1ccc(C(C)NC(=O)Cn2cc(C(=O)Nc3ccc(F)cc3)ccc2=O)cc1 (stereo not drawn) [CBK286049],102.363
2,CC(C)(C)OC(=O)N1CCN(c2cc(NCc3ccccc3)ncn2)CC1 [CBK000137],89.2488
3,Cc1nccn1CC1(O)CCN(C(=O)CCc2ccccc2F)CC1 [CBK284689],116.828
4,CCOc1ccc(-c2nnn(CC(N)=O)n2)cc1 [CBK068283],88.6408
5,Nn1c(SCC(=O)Nc2ccc3c(c2)OCO3)nnc1-c1ccccn1 [CBK267550],98.7193
6,CCOC(=O)c1sc(-c2ccccc2)nc1C [CBK074204],85.8756
7,Cn1ccc(NC(=O)c2cccc(S(=O)(=O)N3CCCC3)c2)n1 [CBK306032],50.2602
8,O=C(CSc1n[nH]c(=O)n1C1CC1)NCCCSc1ccccc1 [CBK295620],94.4371
9,Cn1nccc1CN1CCOC(c2nc(C(C)(C)C)cs2)C1 (stereo not drawn) [CBK304690],85.2087
10,c1ccc2c(c1)CC(Oc1cncc(N3CCNCC3)n1)C2 [CBK000242G],44.8954
11,O=C(/C=C/c1cccnc1)Nc1cncc(OC2CCNCC2)n1 [CBK038919T],101.529
12,CC1(C)C[C@H](NC(=O)c2cccs2)[C@@]2(CCC(=O)N3CCCC3)CC[C@](C)(O)C[C@@H]12 [CBK289042],92.3533
13,CC(C)(C)OCc1[nH]n(CCc2ccccc2)c(=O)c1Cc1c(Cl)cccc1Cl [CBK091452],92.7148
14,Cc1cc(Cl)ccc1NC(=O)CCC(=O)N/N=C/c1cccnc1 [CBK261945],64.2554
15,C[C@@H]1CN2CCCC2CN1CCc1ccccc1 (stereo partly drawn) [CBK285424],93.3647
16,O=C(Nc1cccnc1)c1cc(C(=O)c2ccc(Cl)cc2Cl)c[nH]1 [CBK107406],75.3398
17,Cc1ncc(CN2CCCC(O)(c3ccc(F)cc3)CC2)n1C (stereo not drawn) [CBK284836],89.9896
18,Cc1cc(NS(=O)(=O)c2ccc(-c3ccon3)s2)n(C)n1 [CBK067257],134.422
19,O=C(O)c1cc(NS(=O)(=O)c2ccc3c(c2)OCCCO3)ccc1F [CBK296731],75.1319
20,COc1cccc(-c2ccc3ccc(N)nc3n2)c1 [CBK061640],105.786
21,CC(C)n1nnnc1-c1ccccc1NS(=O)(=O)c1cn[nH]c1 [CBK305542],55.1806

row,Compound,% of control remaining
1,CCOC(=O)N1CCN(S(=O)(=O)c2ccc3c(c2)n(C)c(=O)n3C)CC1 [CBK304620],31.2386
2,O=C(Nc1ccccn1)NC1CCS(=O)(=O)C1 (stereo not drawn) [CBK021330],81.6954
3,COc1ccc(C(NC(=O)C2CCN(CCOc3ccc(Br)cc3)CC2)c2ccco2)cc1 (stereo not drawn) [CBK148311],95.7037
4,CC(=O)c1cnc2nc(-c3cccnc3)nn2c1C [CBK287859],89.2056
5,CC(=O)Nc1ccc(S(=O)(=O)Nc2nc3ccccc3nc2Nc2ccc(C(=O)O)cc2)cc1 [CBK296079],99.1418
6,O=C(OCc1ccc2sccc2c1)N1CCOCC1 [CBK200163],86.7781
7,CCn1cc(CN2CCCN(C(=O)c3ccc(Cl)cn3)CC2)cn1 [CBK304760],98.218
8,COCCNC(=O)c1cnn2c(C)c(Cc3ccccc3C(F)(F)F)c(C)nc12 [CBK165210],112.625
9,CCOC(=O)N1CCN(S(=O)(=O)c2coc(C)c2C(=O)OC)CC1 [CBK057079],79.0404
10,CC(=O)N1CCc2sccc2C1c1ccc(NCc2ccc(F)cc2F)cc1 (stereo not drawn) [CBK286455],117.525
11,CCCc1oc(C(=O)O)cc1CN1CCOCC1 [CBK267984C],96.3087
12,CC(Cc1ccccn1)NC(=O)Cc1ccc2c(c1)CCCO2 (stereo not drawn) [CBK282115],89.0851
13,Cc1nc(C)c(C(=O)NC2CCCNC2=O)s1 (stereo not drawn) [CBK281628],95.9304
14,c1cnc(NCc2cc3n(n2)CCN(CC2CCCNC2)C3)nc1 (stereo not drawn) [CBK306981],64.947
15,Cc1ccc2nsnc2c1NC(=O)CSc1nccn1C [CBK269411],101.541
16,CCN(Cc1ccncc1)C(=O)NCCN1CCOCC1 [CBK145055],97.1178
17,COc1ccc(Cn2c(=O)n(C(=O)CCc3cccc(OC)c3)c3ccccc32)cc1 [CBK106557],72.9231
18,COc1ccc(C(O)c2coc3ccc(O)c(CN(C)C)c23)cc1 (stereo not drawn) [CBK263083],101.769
19,CCC(c1nc2ccccc2c(=O)n1-c1cccnc1)N1C(=O)c2ccccc2C1=O (stereo not drawn) [CBK268300],120.216
20,CCNS(=O)(=O)c1ccc2c(c1)N(Cc1csnn1)CC2 [CBK306161],51.0639
21,CSCCNC(=O)c1coc(COc2ccc3sc(C)nc3c2)n1 [CBK307004],98.594

row,Compound,% of control remaining
1,O=C(/C=C/c1ccc(Br)cc1)N1CCN(Cc2ccc3c(c2)OCO3)CC1 [CBK074434],85.7828
2,Cc1cccc(Nc2[nH]c3cc(C)ccc3c2[N+](=O)[O-])c1 [CBK266303],103.829
3,COc1ccc(C(C)NC2CCN(c3nc(C)cs3)CC2)cc1F (stereo not drawn) [CBK306362],61.0119
4,O=[N+]([O-])c1ccccc1S(=O)(=O)N1CCN(S(=O)(=O)c2ccc3ccccc3c2)CC1 [CBK264296],120.523
5,O=C(Cn1c(C2CCNCC2)cc2cccnc21)N1CCCC1 [CBK285013],106.19
6,O=C(c1sc2ccccc2c1Cl)n1cnc2ccccc21 [CBK262216],112.425
7,O=C1/C(=C\Nc2cccc3cccnc23)Sc2ccccc21 [CBK261647],66.5068
8,OCCOCCN1CCN(C(=S)Nc2ccccc2)CC1 [CBK018046],62.714
9,COc1ccc(CN2CCN(C(=O)c3ccc(C#N)cc3)CC2)cc1 [CBK305698],70.8857
10,COc1cc(Nc2cc(-c3ccc(F)c(F)c3)ncn2)cc(OC)c1OC [CBK090711],86.6219
11,Cc1c(-c2ccc(OCC(N)=O)cc2)nc2ccc(Br)cc2c1C(=O)O [CBK287050],156.897
12,Cc1ccc(NC(=O)CCc2c(C)nc(N3CCOCC3)[nH]c2=O)cc1 [CBK304985],43.3799
13,NC(=O)c1c(NC(=O)Cn2ccc([N+](=O)[O-])n2)sc2c1CCCC2 [CBK269139],68.6636
14,CCN1C(=O)CC2(C1=O)C(=O)N(Cc1nc(OC)cc(OC)n1)c1ccccc12 (stereo not drawn) [CBK075510],106.161
15,Cc1nn(-c2ccccc2)c(C)c1CNC(=O)C1C2C=CC(C2)C1C(=O)O (stereo not drawn) [CBK286877],88.5342
16,Brc1c(OCCNCCN2CCOCC2)ccc2ccccc12 [CBK268576G],98.693
17,COC(=O)[C@@H](C)NC(=O)[C@@H]1CN(C(=O)NC(C)C)CCN1C(=O)c1cccs1 [CBK289624],87.2687
18,O=P(O)(CCc1ccccn1)CN1CCCCC1 [CBK262312],95.0523
19,Cc1[nH]c(=O)[nH]c(=S)c1C(=O)Nc1ccc(Cl)cc1C#N [CBK115502],118.274
20,O=C(O)c1ccc(CNC2CC(=O)N(c3ccc(F)cc3)C2=O)cc1 (stereo not drawn) [CBK286727],92.2553
21,O=C(O)COc1noc2nc3c(cc12)CCCCC3 [CBK269429],98.4196

row,Compound,% of control remaining
1,CCCNC(=O)Cn1nc(CC)n2c(cc3ccsc32)c1=O [CBK284130],84.3271
2,CCOc1ccccc1NC(=O)NCc1cccnc1 [CBK267026],128.26
3,CCOC(=O)N1CCC(NC(=O)N(CCc2ccccc2)Cc2ccccc2)CC1 [CBK155359],74.6099
4,CN1CCc2c(sc3nc(SCc4ccc(Cl)c(Cl)c4)n(-c4ccccc4)c(=O)c23)C1 [CBK263706],101.132
5,O=C1CCC(=O)N1CCOc1nccnc1N1CCNCC1 [CBK074030T],89.1349
6,O=c1[nH]c2ncc(-c3ccco3)nc2n1CCCN1CCOCC1 [CBK064319],103.289
7,CN(C)CCN1CCN(c2cc(Nc3ccc(N(C)C)cc3)nc3ccnn23)CC1 [CBK037211],131.516
8,CC(C)[C@H](NC(=O)C1CC(=O)N(c2ccc(F)cc2)C1)C(=O)N1CCCC1C(=O)O (stereo partly drawn) [CBK286723],101.432
9,C=C(C)CNc1ccccc1C(=O)OC [CBK003656C],103.374
10,COCCn1cnnc1C(C)NC(=O)c1nc2ccccc2[nH]1 (stereo not drawn) [CBK307366],55.0032
11,O=C(O)C1CC=CCC1C(=O)N1CCN(C(=O)c2ccco2)CC1 (stereo not drawn) [CBK299784],85.8007
12,Cc1cccc(CCNC(=O)C2CN(C(=O)C3CCN(C)CC3)C2)c1 [CBK281967],101.337
13,COc1ccc(-c2cnc(N)c(NCC(C)C)n2)c(OC)c1OC [CBK063855],82.8349
14,COC(C)(C)C(=O)N1CCC2(C/C=C/Cc3ccccc3OCC(=O)NCCNC2=O)CC1 [CBK292001],97.9102
15,COc1ccccc1CC(C)NC(=O)CCn1ccc2ccncc21 (stereo not drawn) [CBK285175],116.734
16,COc1cc2c(cc1OC)CN(CC1CCCCC1)CC2 [CBK138321],72.8761
17,OC(Cn1nc(-c2ccccc2)cc1-c1ccccc1)Cn1c2ccc(Cl)cc2c2cc(Cl)ccc21 (stereo not drawn) [CBK261418],77.0802
18,COc1cccc(C(NC(=O)C2CCN(Cc3cccs3)CC2)c2cnccn2)c1 (stereo not drawn) [CBK148572],82.6743
